Measured values reported in paper PMC4336329 (PLoS ONE, 2015).
Out of some 310,000 compounds screened, about 2,200 (0.71%) showed an effect of 50% or more. The effect is printed as a negative number. The list shows a part of the results.

target: human ether-à-go-go-related gene (hERG) potassium channel (human, UniProt Q12809); assay: primary screen, population patch clamp on CHO cells stably expressing hERG
Sequence (Q12809 whole entry, looked up): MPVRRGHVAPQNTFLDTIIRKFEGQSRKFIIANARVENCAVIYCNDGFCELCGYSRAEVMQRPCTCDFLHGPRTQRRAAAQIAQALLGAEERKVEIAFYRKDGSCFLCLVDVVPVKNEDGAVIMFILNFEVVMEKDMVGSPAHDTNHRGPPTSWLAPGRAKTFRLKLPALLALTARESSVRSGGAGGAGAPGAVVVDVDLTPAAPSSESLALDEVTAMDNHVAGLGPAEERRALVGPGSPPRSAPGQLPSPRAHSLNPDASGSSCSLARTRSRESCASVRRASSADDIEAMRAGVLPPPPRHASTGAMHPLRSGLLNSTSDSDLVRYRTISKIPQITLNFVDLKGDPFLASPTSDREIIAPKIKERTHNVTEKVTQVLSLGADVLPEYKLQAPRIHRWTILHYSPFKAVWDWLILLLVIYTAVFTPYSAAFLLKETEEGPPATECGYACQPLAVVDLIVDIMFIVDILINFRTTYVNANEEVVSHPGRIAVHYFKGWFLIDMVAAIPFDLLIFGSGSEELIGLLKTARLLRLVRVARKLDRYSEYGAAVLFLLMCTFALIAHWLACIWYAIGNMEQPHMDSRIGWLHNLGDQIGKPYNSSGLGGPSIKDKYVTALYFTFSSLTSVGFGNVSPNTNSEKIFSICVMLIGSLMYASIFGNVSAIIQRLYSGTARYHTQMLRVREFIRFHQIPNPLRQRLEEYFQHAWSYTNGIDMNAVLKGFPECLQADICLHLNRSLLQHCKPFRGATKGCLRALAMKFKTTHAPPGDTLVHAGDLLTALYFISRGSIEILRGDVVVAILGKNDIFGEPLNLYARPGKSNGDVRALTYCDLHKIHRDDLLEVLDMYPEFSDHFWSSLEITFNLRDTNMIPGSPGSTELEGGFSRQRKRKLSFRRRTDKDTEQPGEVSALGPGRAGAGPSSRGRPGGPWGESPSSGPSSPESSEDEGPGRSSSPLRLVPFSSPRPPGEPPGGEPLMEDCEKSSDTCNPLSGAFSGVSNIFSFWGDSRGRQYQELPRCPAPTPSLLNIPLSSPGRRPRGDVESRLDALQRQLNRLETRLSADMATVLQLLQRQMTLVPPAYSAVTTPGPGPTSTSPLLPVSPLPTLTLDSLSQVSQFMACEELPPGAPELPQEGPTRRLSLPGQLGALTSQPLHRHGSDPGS

Structure (SMILES)	hERG current change (%, negative = inhibition) at 1uM [%]
CC(C)CNS(=O)(=O)c1cc2c3c(c1)CCC(=O)N3CCC2	3.9
Cc1ccc(C(=O)C(NC(=O)c2ccco2)Nc2sc3c(c2C(N)=O)CCCC3)cc1 (centres unmarked)	15.9
COCC(COS(N)(=O)=O)Cc1ccccc1 (centres unmarked)	7.86
CN1CCN(C(=O)CN(Cc2ccccc2)S(C)(=O)=O)CC1	18.4
O=C(COc1ccc(Cl)cc1)Nc1cc2c3c(c1)CC(=O)N3CCC2	-19.5
CSc1ccc(S(=O)(=O)NCC(=O)OCC(=O)N2CC(C)CC(C)C2)cc1[N+](=O)[O-] (centres unmarked)	12.5
O=C(NCCCN1CCOCC1)c1ccc2c(=O)n(Cc3ccccc3)c(=S)[nH]c2c1	9.4
O=[N+]([O-])c1ccccc1CNc1ccc(F)c(Cl)c1	6.09
O=C(Cn1nc(Cc2cccnc2)c2ccccc2c1=O)N1CCC2(CC1)OCCO2	0.907
O=C(NCc1ccco1)Oc1ccccc1	8.55
Cc1ccc2[nH]c(=O)c(Cc3ccccc3)c(O)c2c1	11.8
Cc1ccc(Nc2cc(C)c3c(O)cccc3n2)cc1C.Cl	15
O=C(NC12CC3CC(CC(C3)C1)C2)c1cc(F)c(F)cc1Cl	13.2
Cc1ccc(S(=O)(=O)NC(C)(C)CSc2nnc(N)s2)cc1	3.66
Cc1c(C(C)(C)O)[nH]c2ccc(C#N)cc12	18.1
Cc1ccc(NC(=O)CN(C)C(=O)c2n[nH]c(=O)c3ccccc23)cc1	3.02
Cc1ccc(N(CC(=O)NCc2ccccc2Cl)S(=O)(=O)c2cccs2)cc1	11.5
O=C(CSc1nnc(CNC(=O)c2ccccc2)o1)NCc1ccc(F)cc1	12
COc1cccc(-c2nc(C(N)=O)c3[nH]c(=O)n(-c4cccc(Cl)c4)c3n2)c1OC	6.22
Nc1cc(N)nc(SCC(=O)c2ccc3c(c2)NC(=O)CO3)n1	15.8
Cc1cc(=O)[nH]c(N/N=C/c2ccccn2)n1	11.5
COc1ccc(-c2cc(-c3ccccc3)c(C#N)c(S(C)(=O)=O)n2)cc1	-13.2
O=C(CCS(=O)(=O)c1ccc(Cl)cc1)Nc1ccc(N2CCOCC2)cc1	2.82
COc1coc(C(O)CN)cc1=O (centres unmarked)	10.2
Cc1ccc(NC(=O)C/C(N)=N/O)cc1Cl	9.8
COc1cccc(N(CC(=O)Nc2ccccc2C)S(C)(=O)=O)c1	7.72
